Assay results from patent US4432993A, “Method of treating obesity hyperglycemia, inflammation and platelet aggregation” (priority 1980, dated 1984).
The name of at least one read-out is uncertain.

Assays:
[1] = test system: blood glucose; test: Hypoglycaemic activity (blood glucose after subcutaneous glucose load); assay type: in vivo, Female CFLP mice; conditions: oral, 30 min before glucose 1 g/kg s.c., 2 hour period, vs water control; μmol/kg: 2:2.6, 3:2.6, 4:1, 11:1, 12:1, 13:12.5, 14:12.5, 15:2.5
[2] = test system: mice; test: Effect on energy expenditure and food intake of mice; assay type: in vivo, Female CFLP mice; conditions: % of water-dosed mice (control 100), mg/kg po: 1:17, 2:21, 3:21, 4:22.9, 5 (both):8.6, 6:16.4, 7:17.9, 8:18.8, 9:17.9, 10:17.2, 11:22.2, 12:22.1, 13:21.2, 14:22.3, 15:18.1; for MEAN FOOD INTAKE (%): over 21 h

Row | Structure (SMILES) | REDUCTION IN AREA UNDER BLOOD GLUCOSE CURVE (%) [1] | MEAN ENERGY EXPENDITURE (%) 0-3 h [2] | MEAN ENERGY EXPENDITURE (%) 0-21 h [2] | MEAN FOOD INTAKE (%) [2]
1 | COC(=O)/C=C/c1ccc(CC(C)NCC(O)c2cc3ccccc3o2)cc1 (stereo not drawn) [Example 2, N-[2-(4-[(E)-2-Carbomethoxyethenyl]phenyl)-1-methylethyl]-2-(2-benzofuranyl)-2-hydroxyethanamine] | 11% |  |  | 
2 | COC(=O)COc1ccc(CC(C)NCC(O)c2cc3ccccc3o2)cc1 (stereo not drawn) [Example 3, N-[2-(4-Carbomethoxymethoxyphenyl)-1-methylethyl]-2-(2-benzofuranyl)-2-hydroxyethanamine] | 56% |  |  | 
3 | COC(=O)CCCOc1ccc(CC(C)NCC(O)c2cc3ccccc3o2)cc1 (stereo not drawn) [Example 4, N-[2-(4-(3-Carbomethoxypropoxy)phenyl)-1-methylethyl]-2-(2-benzofuranyl)-2-hydroxyethanamine] | 18% |  |  | 
4 | Cc1ccc(CCNCC(O)c2cc3ccccc3o2)cc1 (stereo not drawn) [Example 6, N-[2-(4-Methylphenyl)ethyl]-2-(2-benzofuranyl)-2-hydroxyethanamine] |  | 156% | 105% | 103%
5 | Cc1ccc(CCC(C)NCC(O)c2cc3ccccc3o2)cc1 (stereo not drawn) [Example 7, N-[3-(4-Methylphenyl)-1-methylpropyl]-2-(2-benzofuranyl)-2-hydroxyethanamine] |  | 138% | 120% | 113%
6 | Cc1ccc(CCC(C)(C)NCC(O)c2cc3ccccc3o2)cc1 (stereo not drawn) [Example 8, N-[3-(4-Methylphenyl)-1,1-dimethylpropyl]-2-(2-benzofuranyl)-2-hydroxyethanamine] |  | 130% | 105% | 108%
7 | Cc1ccc(CCCNCC(O)c2cc3ccccc3o2)cc1 (stereo not drawn) [Example 10, N-[3-(4-Methylphenyl)propyl]-2-(2-benzofuranyl)-2-hydroxyethanamine] |  | 140% | 118% | 90%
8 | CC(Cc1ccc(OCCO)cc1)NCC(O)c1cc2ccccc2o1 (stereo not drawn) [Example 11, N-[2-(4-Hydroxyethoxyphenyl)-1-methylethyl]-2-(2-benzofuranyl)-2-hydroxyethanamine] | 41% |  |  | 
9 | COC(=O)COc1ccc(CC(C)NCC(O)c2cc3ccccc3o2)cc1C (stereo not drawn) [Example 12, N-[2-(4-Carbomethoxymethoxy-3-methylphenyl)-1-methylethyl]2-(2-benzofuranyl)-2-hydroxyethanamine] | 28% |  |  | 
10 | CC(Cc1ccc(OCc2ccccc2)cc1)NCC(O)c1cc2ccccc2o1 (stereo not drawn) [Example 14, N-[2-(4-Benzyloxyphenyl)-1-methylethyl]-2-(2-benzofuranyl)-2-hydroxyethanamine] | 35% |  |  | 
